Consider 51 compounds from PMC6919601, “Identification of Plasmodium dipeptidyl aminopeptidase allosteric inhibitors by high throughput screening” (PLoS ONE, 2019).

Among all 110,000 compounds or so, about 230 (0.21%) showed an effect of 50% or more. Some of the results follow.
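Note: 30 min substrate incubation versus DMSO and 10 µM JCP410 controls.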

The target in this assay is DPAP1 (Plasmodium falciparum, UniProt Q8IIJ9). The experiment in a line: primary screen, percent inhibition; read by cleavage of a fluorogenic dipeptide substrate; higher = more effect of the substance. Further details: species or system P. falciparum D10 trophozoite lysates; single well.
Chain of DPAP1 (Q8IIJ9 whole entry, looked up): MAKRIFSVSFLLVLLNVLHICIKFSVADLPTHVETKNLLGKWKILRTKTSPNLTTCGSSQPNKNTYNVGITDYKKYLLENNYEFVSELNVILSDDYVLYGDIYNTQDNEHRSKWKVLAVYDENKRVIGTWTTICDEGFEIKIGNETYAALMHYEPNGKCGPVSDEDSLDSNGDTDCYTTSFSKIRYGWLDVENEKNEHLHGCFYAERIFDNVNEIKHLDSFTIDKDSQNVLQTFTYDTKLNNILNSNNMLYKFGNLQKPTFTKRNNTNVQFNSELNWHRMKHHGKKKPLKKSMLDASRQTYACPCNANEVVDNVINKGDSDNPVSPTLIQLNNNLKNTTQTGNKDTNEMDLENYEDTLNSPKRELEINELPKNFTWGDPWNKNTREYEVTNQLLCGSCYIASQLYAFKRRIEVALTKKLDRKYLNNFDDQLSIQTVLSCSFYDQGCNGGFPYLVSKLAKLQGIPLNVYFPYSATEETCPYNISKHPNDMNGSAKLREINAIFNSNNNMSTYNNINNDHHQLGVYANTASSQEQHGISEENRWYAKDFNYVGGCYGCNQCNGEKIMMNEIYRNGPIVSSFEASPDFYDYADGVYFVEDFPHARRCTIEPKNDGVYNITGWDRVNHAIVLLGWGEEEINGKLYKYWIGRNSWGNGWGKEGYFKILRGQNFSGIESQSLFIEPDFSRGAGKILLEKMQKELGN
Consider `O=S(=O)(c1cccc2nonc12)N1CCN(c2ccccc2)CC1`, for which the “% Inhibition @ 10 uM” value is reported as -1.04%. For the compound `O=C(Cn1ncn2c(cc3ccccc32)c1=O)NCc1cccs1`, the “% Inhibition @ 10 uM” value was -3.47%. As for `CCOC(=O)c1c(OCC)[nH]c2ccc(O)cc12`, the “% Inhibition @ 10 uM” value is on record as -5.62%. For the compound `Cc1nn(-c2cccc3ccccc23)c(O)c1/C=N/c1ccc(C(=O)O)c(O)c1`, the “% Inhibition @ 10 uM” value turned out to be 0.673%.

As to `CC(C)(C)C1CCc2c(sc(NC(=O)c3cc(-c4ccco4)on3)c2C#N)C1` (stereo not drawn), the “% Inhibition @ 10 uM” value is listed as -0.591%. As to `COC(=O)c1ccc(/C=C2/SC(=O)NC2=O)cc1`, the “% Inhibition @ 10 uM” value was 4.54%. `Oc1ccc2ccccc2c1CNc1nc(-c2ccccc2)cs1`: the “% Inhibition @ 10 uM” value is -4.74%. Consider `Cc1ccc(F)c(NC(=O)Nc2cccc3ccccc23)c1`, for which the “% Inhibition @ 10 uM” value is -7.87%.

Regarding `CCCc1[nH]nc2c1C(c1cc3c(cc1Br)OCO3)C(C#N)=C(N)O2` (stereo not drawn), the “% Inhibition @ 10 uM” value worked out at 4.07%. The same measure for `O=C(Cn1nnc2ccccc21)Nc1ccc(Br)cc1`: 3.31%.

`C/C(Cl)=C/Cn1c(SCc2cccc(Br)c2)nc2c1c(=O)[nH]c(=O)n2C`: the “% Inhibition @ 10 uM” value was 4.11%.

`FC(F)(F)c1cccc(N2CCN(Cc3csc(-c4ccccc4)n3)CC2)c1`: the “% Inhibition @ 10 uM” value was 2.23%. With `COc1ccc2cc3c(N)nn(C(=O)/C=C/c4ccccc4OC(C)C)c3nc2c1`, the “% Inhibition @ 10 uM” value came out at 13.7%. As to `O=c1/c(=C/c2ccc3c(c2)OCO3)sc2nc3ccccc3n12`, the “% Inhibition @ 10 uM” value is listed as -1.75%. In the case of `CC1(C)CC(=O)c2cc3c(N)c(C(=O)NCc4ccco4)sc3nc2C1`, the “% Inhibition @ 10 uM” value was -2.14%. As to `CC1(C)Cc2ccccc2C(Nc2nc(-c3ccccc3)cs2)=N1`, the “% Inhibition @ 10 uM” value is given as 2.47%. Turning to `Cc1nn(-c2ccccc2)c2sc(C(=O)n3cccn3)cc12`, the “% Inhibition @ 10 uM” value amounted to 3.98%. For `Fc1ccccc1COc1ccc(Br)cc1CNCc1cccnc1` the value was 0.755%. Regarding `COc1ccc(C2SCC(=O)Nc3c2c(C)nn3C2CCOC(C)(C)C2)cc1OC` (stereo not drawn), the “% Inhibition @ 10 uM” value turned out to be 6.01%.

With `COC(=O)C(Cc1c[nH]c2ccccc12)NC(=O)c1c(C)cc(C)cc1C` (stereo not drawn), the “% Inhibition @ 10 uM” value was -5.51%.

For `Cc1ccccc1NC(=O)c1cc(S(=O)(=O)N2CCCCCC2)ccc1Cl`, the “% Inhibition @ 10 uM” value was 14.3%. Regarding `CCCOc1ccc(N2C(=O)CC(SCC(=O)Nc3ccc(F)cc3)C2=O)cc1` (stereo not drawn), the “% Inhibition @ 10 uM” value is -5.13%. On to `COc1ccc(C2/C(=C(\O)OC(C)C)C(C)=Nc3ncnn32)c(OC)c1` (stereo not drawn), for which the “% Inhibition @ 10 uM” value was 3.87%. As for `CC1CCCCN1CCCNC(=O)CN1N=C(c2ccccc2)CCC1=O` (stereo not drawn), the “% Inhibition @ 10 uM” value was 6.67%. `CCCCCNC(=O)c1ccc(OCC)cc1`: the “% Inhibition @ 10 uM” value was found to be 11.2%. The same measure for `COc1ccc(-c2nnc3n(CC(C)C)c(=O)c4ccccc4n23)cc1`: 1.68%; for `Cc1ccccc1-c1nnn(CC(=O)O)n1`: -1.72%; for `COc1cc(CNC(=O)c2nc(-c3ccc(-n4cccc4)cc3)no2)cc(OC)c1`: 1.84%. The same measure for `Cc1nn(C)cc1C(=O)Nc1c(C)nn(Cc2ccc(Cl)cc2Cl)c1C`: 2.09%.

Consider `Cc1cc(N)cc(C)c1-n1nc2ccccc2n1`, for which the “% Inhibition @ 10 uM” value is -16.5%. In the case of `CC1CCc2c(sc(NC(=O)c3ccc(Br)o3)c2C#N)C1` (stereo not drawn), the “% Inhibition @ 10 uM” value was -6.51%.

`Cc1c2cnn(CC(=O)NC3CCCCCC3)c(=O)c2c(C)n1Cc1ccc(Cl)cc1`: the “% Inhibition @ 10 uM” value came to 1.02%. For `CO/C(O)=C1/C(C)=NC2=C(C(=O)CCC2)C1c1ccc(Cl)cc1` (stereo not drawn) the value was -3.14%. For the compound `CCCN(CCC)C(=O)c1sc2nc(-c3ccccc3)cn2c1C`, the “% Inhibition @ 10 uM” value is reported as 3.19%.

Regarding `Cc1ccsc1CCNS(=O)(=O)c1ccc(-c2cc(C(F)(F)F)no2)s1`, the “% Inhibition @ 10 uM” value is on record as 5.98%.

In the case of `COc1cc(CN2CCN(C3CCC(c4ccccc4)CC3)CC2)cc(OC)c1OC` (stereo not drawn), the “% Inhibition @ 10 uM” value was determined as 0.611%. Turning to `Cc1ccc(C(=O)Nc2ccccc2Cl)cc1`, the “% Inhibition @ 10 uM” value is on record as 1.35%. On to `Cc1cccc(NC(=O)c2cccc(S(=O)(=O)N3CCOCC3)c2)c1`, for which the “% Inhibition @ 10 uM” value was 1.64%. In the case of `O=C(O)c1ccccc1C(=O)N(c1ccccc1)c1ccccc1`, the “% Inhibition @ 10 uM” value is reported as -1.43%. The same measure for `Cc1ccc(S(=O)(=O)C2CS(=O)(=O)CC2O)cc1` (stereo not drawn): -2.66%. `CCn1c(SCC(=O)Nc2ccc(OC)cc2)nc2ccccc2c1=O`: the “% Inhibition @ 10 uM” value turned out to be 1.96%.

As to `CCOC(=O)C1=C(CN(C)C2CCCCC2)NC(=O)NC1c1cccs1` (stereo not drawn), the “% Inhibition @ 10 uM” value turned out to be 2.9%. For the compound `CCOc1ccc(C(=O)Nc2nc3c(s2)C(=O)CC(C)(C)C3)cc1OCC`, the “% Inhibition @ 10 uM” value is recorded as 6.97%.

`O=C(Nc1ccc2[nH]c(-c3ccco3)nc2c1)c1cccs1`: the “% Inhibition @ 10 uM” value stood at 0.843%.

For `COc1ccc(C(=O)Nc2ccccc2F)c(OC)c1`, the “% Inhibition @ 10 uM” value is -0.088%.

Regarding `COc1cccc(C(=O)N[C@@H](CC(C)C)C(=O)NCC#N)c1`, the “% Inhibition @ 10 uM” value is listed as -3.97%.

With `O=C(CSc1ccc2nnc(-c3ccc(F)cc3)n2n1)c1ccccc1`, the “% Inhibition @ 10 uM” value turned out to be 7.87%. For `O=C(CSc1nc2ccccc2nc1N1CCCC1)N1CCN(C2CCCCC2)CC1` the value was -5.64%.

In the case of `Cc1cc(O)c(C(=O)/C=C/c2ccc([N+](=O)[O-])cc2)c(=O)o1`, the “% Inhibition @ 10 uM” value amounted to 1.29%. Consider `CCCCN(C)C1CCN(CCc2ccccc2)CC1`, for which the “% Inhibition @ 10 uM” value is listed as 4.54%. The same measure for `CCOc1ccccc1N1CCN(Cc2ccc(CC)cc2)CC1`: -0.127%.
